pIC50: −log10 of the molar value. By IC50 is meant the dose at which the fit gives 50% viability; where the fit passes the top or lowest dose, that dose stands as a limit. AUC sums up the same curve from the lowest dose to the 256-fold higher top dose: 1 means no effect, lower means more sensitive. For part of these data: A top dose marked as inferred comes from the curve model; the source does not state it.
How the values were obtained:
Test in all cases: Viability of human cancer cell lines after 72 h of drug (GDSC screen)
CI-1040 = compound: O=C(NOCC1CC1)c1ccc(F)c(F)c1Nc1ccc(I)cc1Cl [CI-1040]; conditions: top dose 10 µM; top dose inferred
Experimental: (§1)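 Human cancer cell lines in 384-well plates, medium with 10% serum, drug for 72 h over a 256-fold dose range (nine 2-fold or five 4-fold steps up to the top dose). Adherent lines were fixed and stained with the nucleic acid dye Syto60, suspension lines read with resazurin; signal relative to control wells, capped at 0 and 100%. One two-parameter sigmoid per drug and line, fitted in a mixed model over all curves with the slope shared within a line.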

IPA-3 = compound: Oc1ccc2ccccc2c1SSc1c(O)ccc2ccccc12 [IPA-3]; conditions: top dose 32 µM; top dose inferred
Experimental: as §1

Tubastatin A = compound: CN1CCc2c(c3ccccc3n2Cc2ccc(C(=O)NO)cc2)C1 [Tubastatin A]; conditions: top dose 20 µM
Experimental: as §1

Z-LLNle-CHO = compound: CCCC[C@@H](C=O)NC(=O)[C@H](CC(C)C)NC(=O)[C@H](CC(C)C)NC(=O)OCc1ccccc1 [Z-LLNle-CHO]; conditions: top dose 2.56 µM; top dose inferred
Experimental: as §1

Temozolomide = compound: Cn1nnc2c(C(N)=O)ncn2c1=O [Temozolomide]; conditions: top dose 30 µM
Experimental: as §1

JW-7-52-1 = compound: CCC(=O)N1CCN(c2ccc(-n3c(=O)ccc4cnc5ccc(-c6cnc7ccccc7c6)cc5c43)cc2C(F)(F)F)CC1 [JW-7-52-1]; conditions: top dose 1.2 µM; top dose inferred
Experimental: as §1

XL-880 = compound: COc1cc2c(Oc3ccc(NC(=O)C4(C(=O)Nc5ccc(F)cc5)CC4)cc3F)ccnc2cc1OCCCN1CCOCC1 [XL-880]; conditions: top dose 5.12 µM; top dose inferred
Experimental: as §1

Rapamycin = compound: CO[C@H]1C[C@@H]2CC[C@@H](C)[C@@](O)(O2)C(=O)C(=O)N2CCCC[C@H]2C(=O)O[C@H]([C@H](C)C[C@@H]2CC[C@@H](O)[C@H](OC)C2)CC(=O)[C@H](C)/C=C(\C)[C@@H](O)[C@@H](OC)C(=O)[C@H](C)C[C@H](C)/C=C/C=C/C=C/1C [Rapamycin]; conditions: top dose 0.1 µM; top dose inferred
Experimental: as §1

Cell Line | AUC (CI-1040) | pIC50 (CI-1040) | AUC (IPA-3) | AUC (Tubastatin A) | pIC50 (Tubastatin A) | AUC (Z-LLNle-CHO) | pIC50 (Z-LLNle-CHO) | AUC (Temozolomide) | pIC50 (Temozolomide) | AUC (JW-7-52-1) | pIC50 (JW-7-52-1) | AUC (XL-880) | pIC50 (XL-880) | AUC (Rapamycin) | pIC50 (Rapamycin) | pIC50 (IPA-3)
U-698-M (B-cell leukaemia, suspension) | 0.909 | < 5.00 | 0.576 | 0.945 | < 4.70 | 0.939 | < 5.59 | 0.978 | < 4.52 | 0.883 | < 5.92 | 0.777 | 5.69 | 0.963 | < 7.00 | 
SW954 (urogenital system, adherent) | 0.82 | 5.23 | 0.897 | 0.908 | < 4.70 | 0.829 | 5.79 | 0.968 | < 4.52 | 0.448 | 7.27 | 0.368 | 6.86 | 0.913 | < 7.00 | < 4.49
PF-382 (T-cell lymphoblastic leukaemia, suspension) | 0.988 | < 5.00 | 0.659 | 0.868 | 4.84 | 0.692 | 6.29 | 0.99 | < 4.52 | 0.517 | 7.08 | 0.535 | 6.41 | 0.768 | 7.48 | 5.28
KARPAS-620 (haematopoietic neoplasm, suspension) | 0.828 | 5.30 | 0.709 | 0.796 | 5.10 | 0.761 | 6.10 | 0.985 | < 4.52 | 0.227 | 7.85 | 0.622 | 6.18 | 0.154 | 9.17 | 5.15
SUP-HD1 (Hodgkin lymphoma, suspension) | 0.88 | 5.02 | 0.856 | 0.898 | < 4.70 | 0.702 | 6.24 | 0.978 | < 4.52 | 0.604 | 6.84 | 0.658 | 6.07 | 0.79 | 7.37 | 4.62
NCI-H2081 (small cell lung carcinoma, suspension) | 0.966 | < 5.00 | 0.823 | 0.981 | < 4.70 | 0.896 | < 5.59 | 0.984 | < 4.52 | 0.906 | < 5.92 | 0.782 | 5.64 | 0.96 | < 7.00 | 4.69
EW-3 (Ewing sarcoma, adherent) | 0.942 | < 5.00 | 0.875 | 0.907 | < 4.70 | 0.872 | < 5.59 | 0.95 | < 4.52 | 0.611 | 6.80 | 0.686 | 5.94 | 0.923 | < 7.00 | < 4.49
BC-1 (B-cell lymphoma, suspension) | 0.936 | < 5.00 | 0.939 | 0.914 | < 4.70 | 0.851 | 5.82 | 0.855 | 4.73 | 0.931 | < 5.92 | 0.646 | 6.12 | 0.742 | 7.57 | < 4.49
SUP-T1 (T-cell lymphoblastic leukaemia, suspension) | 0.985 | < 5.00 | 0.903 | 0.924 | < 4.70 | 0.985 | < 5.59 | 0.981 | < 4.52 | 0.988 | < 5.92 | 0.706 | 5.94 | 0.989 | < 7.00 | < 4.49
NCI-H1417 (small cell lung carcinoma, suspension) | 0.677 | 5.67 | 0.967 | 0.855 | < 4.70 | 0.93 | < 5.59 | 0.958 | < 4.52 | 0.763 | 6.29 | 0.746 | 5.72 | 0.945 | < 7.00 | < 4.49
BE2-M17 (neuroblastoma, adherent) | 0.748 | 5.48 | 0.854 | 0.975 | < 4.70 | 0.861 | 5.64 | 0.985 | < 4.52 | 0.815 | 6.17 | 0.807 | 5.57 | 0.944 | < 7.00 | 4.58
NCI-SNU-1 (stomach, suspension) | 0.927 | < 5.00 | 0.985 | 0.952 | < 4.70 | 0.969 | < 5.59 | 0.978 | < 4.52 | 0.788 | 6.26 | 0.496 | 6.51 | 0.915 | < 7.00 | < 4.49
QIMR-WIL (acute myeloid leukaemia, suspension) | 0.889 | < 5.00 | 0.568 | 0.791 | 5.06 | 0.766 | 6.04 | 0.869 | 4.58 | 0.555 | 6.97 | 0.518 | 6.44 | 0.452 | 8.33 | 5.52
NCI-H526 (small cell lung carcinoma, suspension) | 0.987 | < 5.00 | 0.982 | 0.902 | < 4.70 | 0.987 | < 5.59 | 0.988 | < 4.52 | 0.86 | 6.03 | 0.701 | 5.94 | 0.859 | 7.11 | < 4.49
L-1236 (Hodgkin lymphoma, suspension) | 0.875 | 5.14 | 0.988 | 0.971 | < 4.70 | 0.761 | 6.11 | 0.991 | < 4.52 | 0.569 | 6.95 | 0.833 | 5.58 | 0.789 | 7.43 | < 4.49
OPM-2 (myeloma, suspension) | 0.982 | < 5.00 | 0.866 | 0.753 | 5.25 | 0.722 | 6.23 | 0.992 | < 4.52 | 0.222 | 7.85 | 0.651 | 6.11 | 0.41 | 8.43 | 4.69

Cell Line | AUC (CI-1040) | pIC50 (CI-1040) | AUC (IPA-3) | AUC (Tubastatin A) | pIC50 (Tubastatin A) | AUC (Z-LLNle-CHO) | pIC50 (Z-LLNle-CHO) | AUC (Temozolomide) | pIC50 (Temozolomide) | AUC (JW-7-52-1) | pIC50 (JW-7-52-1) | AUC (XL-880) | pIC50 (XL-880) | AUC (Rapamycin) | pIC50 (Rapamycin) | pIC50 (IPA-3)
NCI-H1869 (lung squamous cell carcinoma, adherent) | 0.866 | < 5.00 | 0.849 | 0.981 | < 4.70 | 0.734 | 6.09 | 0.97 | < 4.52 | 0.863 | < 5.92 | 0.817 | 5.48 | 0.87 | < 7.00 | 4.54
NCI-H69 (small cell lung carcinoma, suspension) | 0.974 | < 5.00 | 0.982 | 0.965 | < 4.70 | 0.771 | 5.96 | 0.965 | < 4.52 | 0.702 | 6.52 | 0.942 | < 5.29 | 0.923 | < 7.00 | < 4.49
COR-L279 (small cell lung carcinoma, suspension) | 0.975 | < 5.00 | 0.991 | 0.827 | 4.98 | 0.939 | < 5.59 | 0.978 | < 4.52 | 0.568 | 6.95 | 0.605 | 6.22 | 0.762 | 7.49 | < 4.49
KOPN-8 (B-cell leukaemia, suspension) | 0.708 | 5.66 | 0.648 | 0.724 | 5.32 | 0.778 | 6.05 | 0.978 | < 4.52 | 0.517 | 7.08 | 0.608 | 6.22 | 0.447 | 8.34 | 5.32
KARPAS-45 (lymphoblastic leukaemia, suspension) | 0.969 | < 5.00 | 0.731 | 0.735 | 5.29 | 0.823 | 5.92 | 0.981 | < 4.52 | 0.786 | 6.37 | 0.411 | 6.72 | 0.91 | < 7.00 | 5.10
Raji (Burkitt lymphoma, suspension) | 0.954 | < 5.00 | 0.931 | 0.913 | < 4.70 | 0.78 | 6.01 | 0.987 | < 4.52 | 0.816 | 6.22 | 0.833 | 5.52 | 0.816 | 7.29 | < 4.49
D-283MED (medulloblastoma, adherent) | 0.963 | < 5.00 | 0.984 | 0.991 | < 4.70 | 0.957 | < 5.59 | 0.989 | < 4.52 | 0.9 | < 5.92 | 0.883 | 5.33 | 0.955 | < 7.00 | < 4.49
MOLP-8 (myeloma, suspension) | 0.801 | 5.33 | 0.796 | 0.788 | 5.07 | 0.76 | 6.06 | 0.958 | < 4.52 | 0.22 | 7.93 | 0.622 | 6.17 | 0.229 | 8.97 | 4.84
HDLM-2 (Hodgkin lymphoma, suspension) | 0.914 | < 5.00 | 0.892 | 0.989 | < 4.70 | 0.948 | < 5.59 | 0.948 | < 4.52 | 0.914 | < 5.92 | 0.883 | < 5.29 | 0.891 | < 7.00 | < 4.49
ARH-77 (myeloma, suspension) | 0.965 | < 5.00 | 0.971 | 0.868 | 4.77 | 0.773 | 6.02 | 0.971 | < 4.52 | 0.504 | 7.11 | 0.685 | 5.99 | 0.753 | 7.49 | < 4.49
SU-DHL-4 (B-cell lymphoma, suspension) | 0.997 | < 5.00 | 0.633 | 0.947 | 4.72 | 0.804 | 6.05 | 0.996 | < 4.52 | 0.159 | 7.96 | 0.599 | 6.26 | 0.114 | 9.17 | 5.38
NCI-H187 (small cell lung carcinoma, suspension) | 0.975 | < 5.00 | 0.983 | 0.879 | < 4.70 | 0.988 | < 5.59 | 0.981 | < 4.52 | 0.727 | 6.45 | 0.753 | 5.74 | 0.922 | < 7.00 | < 4.49
KNS-81-FD (glioma, adherent) | 0.887 | < 5.00 | 0.977 | 0.967 | < 4.70 | 0.681 | 6.21 | 0.962 | < 4.52 | 0.569 | 6.91 | 0.714 | 5.79 | 0.823 | 7.05 | < 4.49
HT (B-cell lymphoma, suspension) | 0.984 | < 5.00 | 0.937 | 0.887 | 4.72 | 0.723 | 6.19 | 0.964 | < 4.52 | 0.514 | 7.09 | 0.719 | 5.90 | 0.767 | 7.46 | < 4.49
HAL-01 (lymphoblastic leukaemia, suspension) | 0.629 | 5.87 | 0.825 | 0.772 | 5.16 | 0.804 | 5.95 | 0.952 | < 4.52 | 0.522 | 7.07 | 0.51 | 6.47 | 0.876 | 7.10 | 4.79

Source: the supplement of paper PMC4967469
